Measured values: the BET-seq Pho4 binding data (Le et al. 2018)
Some of the results follow. Values were computed here from the reads of four pooled replicates and scatter widely.

Target: T1, Pho4 (S. cerevisiae) (UniProt P07270)
T1 sequence: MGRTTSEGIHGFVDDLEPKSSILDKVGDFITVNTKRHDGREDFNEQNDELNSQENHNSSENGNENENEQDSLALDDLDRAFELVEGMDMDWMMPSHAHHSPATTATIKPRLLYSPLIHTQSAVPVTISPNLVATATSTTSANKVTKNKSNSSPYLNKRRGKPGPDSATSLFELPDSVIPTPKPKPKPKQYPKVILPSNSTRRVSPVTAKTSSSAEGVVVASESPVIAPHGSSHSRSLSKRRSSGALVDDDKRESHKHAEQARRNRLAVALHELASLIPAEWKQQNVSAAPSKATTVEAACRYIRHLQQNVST
Experiment: relative binding free energy (BET-seq); higher = weaker binding
Settings: reference: library average

| Sequence | relative binding free energy [kJ/mol] |
| --- | --- |
| TTTGGCACGTGCGAAA | -0.586 |
| TGAAGCACGTGGAGTA | -0.544 |
| GTATGCACGTGGGTTC | 0.251 |
| GTTCACACGTGGGGTT | 0.167 |
| ATAAACACGTGTAGGG | 0.795 |
| GGGGGCACGTGCGGGA | -0.167 |
| ATTTACACGTGATTTG | 0.628 |
| TTTTCCACGTGAGATT | 1.38 |
| TGGTTCACGTGTTAAC | 0.837 |
| AAGCTCACGTGGTGTT | 0.586 |
| AGGCTCACGTGGGTTG | 0.251 |
| GTGCGCACGTGCGGGA | -0.753 |
| TATCCCACGTGGGTTG | -0.544 |
| TGAGTCACGTGAGGGA | 1.38 |
| GTCTACACGTGAGGTT | 1.92 |
| ACATGCACGTGGGGAG | -0.711 |
| CTTTTCACGTGAGGCT | 1.42 |
| TGTCTCACGTGGTGAG | 0.586 |
| TTGCGCACGTGACTTT | 0.669 |
| GCTTTCACGTGCAGTT | 1.55 |
| TGGCTCACGTGGTGAG | 0.962 |
| GCTATCACGTGGGTTG | 0.0418 |
| ATGGGCACGTGGTAGG | -0.502 |

| Sequence | relative binding free energy [kJ/mol] |
| --- | --- |
| GTGTTCACGTGTTGCA | 0.837 |
| GTGGTCACGTGTATCG | 0.586 |
| CGCTGCACGTGGGGCT | -1 |
| TGTCGCACGTGTGTTA | -0.753 |
| TGTGTCACGTGGGACC | -0.251 |
| AAATTCACGTGAGTTA | 1.3 |
| TGATACACGTGGGGGG | 0.0837 |
| GGTCACACGTGCTGGT | 0.46 |
| GATGTCACGTGTTAGC | 0.92 |
| TGTCCCACGTGGGCGG | -0.753 |
| GGTGGCACGTGTTTTA | 0.251 |
| TAATTCACGTGGGGAA | 0.879 |
| TTATGCACGTGGTGGA | -0.0418 |
| TATCTCACGTGTGTTG | 0.795 |
| GGTTACACGTGTCTAG | 0.628 |
| TAAAGCACGTGGGTTT | -0.544 |
| GAGGGCACGTGGTTGT | -0.167 |
| TATAGCACGTGTGAGT | 0.251 |
| TTTGTCACGTGGTACT | 0.209 |
| TGGTCCACGTGGCGGA | -0.377 |
| CGTCGCACGTGGTGTT | -0.92 |
| GTTTGCACGTGGTTAC | 0.293 |
| ATAGGCACGTGCTTTG | -0.962 |

| Sequence | relative binding free energy [kJ/mol] |
| --- | --- |
| GTTTTCACGTGTTACA | 1.55 |
| GTGGGCACGTGGGACT | -0.335 |
| AGGGACACGTGGTATC | 0.167 |
| AGGGTCACGTGCGAAG | -0.0418 |
| GGTTACACGTGGTGAT | 0.0418 |
| GTCTGCACGTGGTGCG | -0.418 |
| GAGCGCACGTGTGGTA | -0.126 |
| TCTAGCACGTGTGGCG | 0.251 |
| AGTAACACGTGGAGTG | 0.167 |
| GAAAGCACGTGGGGAG | -0.628 |
| GCTGTCACGTGGTTAG | 0.377 |
| GGTCTCACGTGGGGTT | 0.418 |
| TGTGGCACGTGGCTAG | -0.586 |
| TCATTCACGTGTTTGG | 1.13 |
| GTTTACACGTGGGCCG | 0.795 |
| GTAAGCACGTGATAGT | 0.335 |
| AGCTTCACGTGGGGAA | 0.962 |
| CAGTGCACGTGGTCTG | -0.586 |
| TTACGCACGTGATTGT | 0.0418 |
| GTGGGCACGTGATAGC | -0.251 |
| CGGTTCACGTGGTAAG | 0.711 |
| CTGTGCACGTGCCTGG | -0.293 |
| TAGTACACGTGTGTAT | 0.167 |

| Sequence | relative binding free energy [kJ/mol] |
| --- | --- |
| CAATGCACGTGGGGTG | -0.502 |
| ATGGTCACGTGCTTAA | 0.586 |
| GGACACACGTGTGGGT | 0.669 |
| GGGGTCACGTGGTACT | 0.418 |
| GGGGGCACGTGTTGCC | -0.0837 |
| ATGTACACGTGCGGGG | 0.0837 |
| GTTTACACGTGGTCGA | 0.879 |
| TATTTCACGTGAATTT | 1.59 |
| AGTTGCACGTGCTGCT | -0.0837 |
| AAGGTCACGTGTATCT | 0.46 |
| GATAGCACGTGCGGGT | -0.209 |
| TTTGCCACGTGTTGGA | 0.167 |
| TTAGTCACGTGTGGGA | 0.795 |
| GATGACACGTGGTGAA | 0.502 |
| TTAGCCACGTGGTTTA | -0.251 |
| TATGGCACGTGACTGT | 0 |
| GTTGGCACGTGTCTGT | 0.126 |
| TAGCGCACGTGTGTGT | 0.502 |
| TATTTCACGTGTATTG | 0.628 |
| CGTCACACGTGTTAGG | 0.879 |
| TGTGTCACGTGAGCAT | 0.92 |
| AGTTTCACGTGGACTT | 1.34 |
| GGATGCACGTGGGACG | 0.293 |

| Sequence | relative binding free energy [kJ/mol] |
| --- | --- |
| CGTTTCACGTGCGAGG | 1.26 |
| TGAGGCACGTGAGAGC | 0.335 |
| ATTTGCACGTGCCTGT | -0.46 |
| TTTAGCACGTGGATCA | -0.209 |
| TTGGGCACGTGTGGTC | 0.293 |
| TGGGTCACGTGAATTT | 1.55 |
| AAATGCACGTGAGTAG | 0.502 |
| TGAGTCACGTGACTGT | 0.879 |
| AGGAGCACGTGAAGTA | 1 |
| TGATACACGTGAAAGG | 1.46 |
| GGTCTCACGTGGTTGC | 1.34 |
| GCACGCACGTGGGTGT | -0.962 |
| GGGTGCACGTGGGCGC | -0.502 |
| TGAAGCACGTGGTGGC | -0.837 |
| AATATCACGTGTTGTA | 0.669 |
| TGTGGCACGTGGTTAT | -0.669 |
| GGGTACACGTGGGCAT | -0.126 |
| GTGATCACGTGATATG | 0.586 |
| GTATACACGTGGTGTA | 0.167 |
| GGGCACACGTGATGGA | 1.17 |
| TTGTTCACGTGTCGAC | 1.46 |
| CAGGGCACGTGCAGTT | -0.335 |
| GTATTCACGTGAGTGC | 1.42 |
